In ChEMBL document CHEMBL1201862, “PubChem BioAssay data set” (2004):

The compounds below were run on NCI-H322M (assay: NCI anticancer screen, dose series, 48 h).
`O=C(CN1CCOCC1)Nc1nc(-c2ccc(Cl)cc2)cs1` was tested, and the GI50 was inactive: 41.7 µM. With `O=C1/C(=N/O)Cc2c(Br)ccc(Br)c21` the GI50 was inactive: 69.5 µM. `Cc1c(C)c(C)c(-n2c(=O)n(C)c(=O)n2C(C)(C)C)c(C)c1C` was tested, and the GI50 was inactive: > 100 µM. In the case of `O=C1C2CCCCC2C(=O)N1n1c(Cc2ccc(Cl)cc2)n[nH]c1=O` (stereo not given), the GI50 is reported as inactive: > 100 µM. In the case of `CCN(CC)C(=S)SCC(=O)Nc1nc2c(s1)CCCC2`, the GI50 is reported as inactive: > 100 µM. With `O=C(CC(=O)Nc1ccccc1Cl)NNC(c1cc(/N=N/c2ccc(Br)cc2)ccc1O)P(O)O` (stereo not given) the GI50 was inactive: 1.37 µM. In the case of `O=C(/C=C/c1cccc([N+](=O)[O-])c1)c1cccnc1`, the GI50 is reported as inactive: > 60.3 µM. `CO[C@@]12C[C@H](CNC(=O)c3ccc[nH]3)O[C@@H]1NC(=O)N2` was tested, and the GI50 was inactive: > 100 µM. For `O=C(N/N=C/c1ccccc1)c1c(F)c(F)c(F)c(F)c1F`, the GI50 was inactive: > 100 µM. In the case of `Cc1ccc2c(C(=O)c3c(C)n(CCN4CCOCC4)c4ccccc34)cccc2c1`, the GI50 is reported as inactive: 24.7 µM. For `NC(=S)N/N=C(/CC(=O)c1ccc([N+](=O)[O-])cc1)C(=O)Nc1ncc([N+](=O)[O-])s1`, the GI50 was inactive: > 100 µM. In the case of `C=C1C(=O)OC2/C=C(\C)C3OC3/C=C(/C(=O)OC)C(OC(C)=O)C(OC(=O)C(C)(O)C(C)OC(C)=O)C12` (stereo not given), the GI50 is reported as inactive: 7.67 µM. With `CC1=NN(c2nc(N)nc(/C(C#N)=C\c3ccc(-c4ccc([N+](=O)[O-])cc4)o3)n2)C(C)(C)C1` the GI50 was inactive: > 100 µM. In the case of `C=C1[C@H](OCC(C)C)[C@@H](OC(=O)C(C)CC)[C@@H](O)C(C)(C)/C=C/[C@H](C)C(=O)[C@@]2(O)C[C@H](C)[C@H](O)[C@@H]2[C@H]1OC(=O)C(C)CC` (stereo not given in full), the GI50 is reported as inactive: 6.93 µM. In the case of `CC1(C)OCC2OC3([C@H](O)CCO)OC(C)(C)OC3C2O1` (stereo not given in full), the GI50 is reported as inactive: > 100 µM. For `CC1=NN(c2nc(N)nc(COc3ccc(N)cc3)n2)C(C)(C)C1`, the GI50 was inactive: > 100 µM. In the case of `O=S(=O)(Sc1ccc(Cl)cc1)c1ccc(Cl)cc1`, the GI50 is reported as inactive: 23.8 µM. `Cn1c(=O)n2n(c1=O)C1C(=CC2)C2C=CC1n1c(=O)n(C)c(=O)n12` (stereo not given) was tested, and the GI50 was inactive: > 100 µM. With `CC1=CCCC(C)(O)C2CC(CCC3(C)OC3CC1)C(C)C(=O)O2` (stereo not given) the GI50 was inactive: > 100 µM. With `CC12CCC(C(Br)(Br)C1=O)C2(C)C` (stereo not given) the GI50 was inactive: 8.99 µM. In the case of `N#CC(c1ccccc1)N(CCc1ccccc1)C(=O)c1ccc(C(=O)N(CCc2ccccc2)C(C#N)c2ccccc2)cc1` (stereo not given), the GI50 is reported as inactive: 26.2 µM. In the case of `c1ccc([C@@H]2N[C@@]3(CO[Si](c4ccccc4)(c4ccccc4)c4ccccc4)CC[C@H]4CN[C@@H]2[C@H]43)cc1`, the GI50 is reported as inactive: 10.5 µM. For `O=Cc1cc([N+](=O)[O-])no1`, the GI50 was inactive: 47.8 µM. `CCOC(=O)c1c2ccc(/C=C/c3ccccc3)ccc-2c(C(=O)OCC)c1N` was tested, and the GI50 was inactive: > 100 µM. In the case of `CCNCCNC(=O)c1ccc(Br)cc1`, the GI50 is reported as inactive: > 100 µM. In the case of `CCCCCCCCCC1C(C)c2c([nH]c3ccccc23)C2C(=O)N(c3ccccc3)C(=O)C21` (stereo not given), the GI50 is reported as inactive: 15.2 µM. In the case of `COc1ccc(-n2c3c(c4cc(O)ccc42)Cc2ccccc2C3=O)cc1`, the GI50 is reported as inactive: 77.8 µM. For `COc1cccc(/C=N/C23CC4CC(CC(C4)C2)C3)c1`, the GI50 was inactive: > 100 µM. `Cc1ccnc2c1C(=O)C1=C(OC(C)(C)CC1O)C2=O` (stereo not given) was tested, and the GI50 was inactive: 11.1 µM. For `COc1ccc(C2C(Cl)C(=O)N2NC(=O)Cc2ccccc2)cc1` (stereo not given), the GI50 was inactive: > 100 µM. With `O=c1cnn(C2OC(CO)C(O)C2O)c(=S)[nH]1` (stereo not given) the GI50 was inactive: 88.9 µM. For `O=C1c2ccccc2C(=O)c2nc(-c3ccccc3)c(-c3ccccc3)nc21`, the GI50 was inactive: > 49.7 µM. For `C[C@@H](c1ccccc1)N1C[C@@H](c2ccc3c(c2)OCO3)[C@@H]2C(=O)CCC[C@@H]21`, the GI50 was inactive: > 100 µM. With `COc1ccc(/C=C/C(=O)c2cc(CN(C)C)c(O)c(CN(C)C)c2)cc1` the GI50 was inactive: 27.9 µM. With `COc1cc([C@@H]2c3cc4c(c(O)c3C[C@H]3COC(=O)[C@@H]32)OCO4)cc(OC)c1O` the GI50 was active: 0.0237 µM.

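96-well plates; 48 h exposure; 5 concentrations. Endpoints by linear interpolation between flanking doses. Not reached: highest tested concentration assigned. GI50 marks 50% less growth.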 The source made the active and inactive calls. Rule as the data show it: active = GI50 up to about 1.1 µM and inactive = higher.
